For 84 variants, self-cleavage results are on record in the RNAGym collection of RNA variant scans (doi:10.1093/nar/gkz1192).

The source gives no read counts; variants with many changes may rest on few reads.

B1: CPEB3 Ribozyme (parent)
chain: UAACAGGGGGCCACAGCAGAAGCGUUCACGUCGCAGCCCCUGUCAGAUUCUGGUGAAUCUGCGAAUUCUGCUGUAUAUCUC

The variants in this data set derive from B1. The data set can be described thus: self-cleavage, relative activity (ratio to wild type); higher = more cleavage; in vitro, sequencing. The essentials: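 For each CPEB3 ribozyme variant, relative activity is its cleaved/total read fraction divided by the unmutated ribozyme's. Barcoded error-prone PCR libraries were transcribed by T7 RNA polymerase (5 hours, 37°C) and held in DNase I for 15 min before an EDTA stop, with cleavage occurring throughout. Template-switching reverse transcription and Illumina sequencing were used to read the RNAs. A 5-read minimum applied, and results are the mean of three batches.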
Regarding U1G U25C U26C G30A U31A U60C, the self-cleavage was 0.48.
Next, A2G A65C U66C: 0.32.
As for A2G A20G U25C U43C G63A U80A, the self-cleavage was determined as 0.25.
Consider U1C U49A G53C G73U A75U, for which the self-cleavage worked out at 1.2.
On to A2G A13G A65G, for which the self-cleavage worked out at 0.13.
The value for U1C U43C A47G A77G was 0.33; that for U1G A15U A45G was 0.43.
A2G A15C G16U U26A U31A: the self-cleavage was determined as 0.13.
The value for A2G A13U A35G U54C U72G was 0.58.
Take A2G A15U U31C U41C: the self-cleavage was 0.43.
In the case of U1G A5G C12G C39A A45U U60C U78A, the self-cleavage stood at 0.05.
For A2G A3G C12U A15U U31C U51C, the self-cleavage was determined as 0.14.
Regarding A2G A21G U26C A47G U48C, the self-cleavage came to 0.34.
Take A2G A5G U43C U48C: the self-cleavage turned out to be 0.52.
In the case of U1G A2G A18U C23U U48C U78C, the self-cleavage was 0.05.
On to A2G A21G A28U, for which the self-cleavage is 0.42.
For A2G A64G U69C, the self-cleavage worked out at 0.25.
Next, A2G A5G U25C: 0.47.
Next, U1C U41C U48C: 0.61; A2G A3G U49A U58A A75G: 0.45.
Turning to A2G A15U A18G U60C, the self-cleavage is 0.04.
Next, A2G A5U A28G U51A U54C A77G: 0.25; A2C U26C U48C U67A: 0.42.
As to U1C U41C U51C U54C U80C, the self-cleavage is 1.
Regarding U1C U31C A47G, the self-cleavage came to 0.76.
Next, U1C U31A U43C A56G U60C U69A: 0.06; A2G A3G G36A U80C: 0.75; A2G A5G C34G U78C U80C: 0.13.
For the variant A2G A13U U41A U49A U80C, the self-cleavage was determined as 0.31.
For the variant U1C U26A A35G A57G U69A U76C, the self-cleavage turned out to be 0.97.
Next, A2G A35U U58C U69A U76C: 0.09; A2G A35G G42A A56G: 0.26.
Turning to A2G A5U A35G A56G U60A U78C, the self-cleavage worked out at 0.47.
Next, A2G A3G U48C U60C G63U: 0.22; A2G A15U U43C C81U: 0.3.
Regarding A2G A35U U66C, the self-cleavage turned out to be 0.12.
Next, U1C U41A A45G G55A A56G U67C: 0.06; A2G A15U U25C C29A U74C: 0.07.
A2G A35U G52A U69C: the self-cleavage stood at 0.13.
Turning to A2G A18G U51A A56G C62U U76C, the self-cleavage amounted to 0.21.
As for U1G A13G A15G U26C U69C G70A, the self-cleavage came out at 0.04.
Next, A2G A47G U48C U60A U80C: 0.06.
As to A2G A3G A28G, the self-cleavage came out at 0.8.
Turning to A2G A3G A35G, the self-cleavage worked out at 1.14.
On to A2G A5G U43C U48A G63U, for which the self-cleavage came to 0.11.
With U1G A18U G19U C40A, the self-cleavage came out at 0.03.
With A2G A5G G10A A57G U67C, the self-cleavage amounted to 0.07.
Regarding A2G A15U U26C U51C U69C, the self-cleavage came out at 0.28.
For the variant A2G A56G A57G, the self-cleavage came out at 0.24.
Regarding A2G A5G U25C A45G, the self-cleavage turned out to be 0.71.
Turning to A2G A45G U76C A77G, the self-cleavage was determined as 0.53.
Regarding A2G A13U A47G C62U U72A, the self-cleavage came out at 0.1.
Take A2G A15G A18G A35U A57G: the self-cleavage is 0.
As to A2G A20G U67C, the self-cleavage was 0.66.
The value for A2C U31A U67A was 0.53; that for A2C A28G A56G was 0.56; that for A2G A5U G19U A57C was 0.1.
As for A2C U25C A28U U43C C62U, the self-cleavage was determined as 0.21.
Consider A2G A15C A21G U72C U78C, for which the self-cleavage was found to be 0.22.
U1C U54A G70A: the self-cleavage was determined as 0.38.
For A2G A35U U74C, the self-cleavage worked out at 0.43.
Consider A2G A15G U41C U51G U69A, for which the self-cleavage worked out at 0.46.
As for U1C U26C U43C, the self-cleavage was determined as 0.4.
As for A2G C4G A28G U80C, the self-cleavage was determined as 0.88.
The value for A2G A15U U26C U49C U72A was 0.13; that for A2G A57G U66C U72C A77G was 0.27.
For the variant U1G C4U A5U G33A U67C, the self-cleavage was 0.29.
Regarding A2G A15U A47G U49A U76C, the self-cleavage turned out to be 0.08.
For A2G A5G A35G U54C U60C U78A, the self-cleavage is 0.54.
In the case of A2G A13U A45U U67C, the self-cleavage was 0.21.
Take A2G A5U G9A A15U A21G A28C A75U: the self-cleavage was 0.05.
Regarding A2G A18U U43C, the self-cleavage amounted to 0.05.
Next, U1G A15U U25C C34U C40A U48A A75G: 0.05; A2G A3G A28G U41C: 0.82; A2C A15U A20G C38U: 0.05.
A2G A18U U31A A35U U51C U58G U66C: the self-cleavage came out at 0.05.
For A2G A3G G16A, the self-cleavage came out at 0.75.
With A2G A15U A35U U41C U43C, the self-cleavage is 0.08.
A2G A28U G33A U51C U78A: the self-cleavage was determined as 0.24.
Consider A2G A13C A20G U26C A47G A64G U80C, for which the self-cleavage turned out to be 0.35.
Next, A2C A56G A65G U72A: 0.18; A2C A15G A35U U60A: 0.37.
The value for U1C U31G U72C was 0.8; that for U1C U72A U74C was 1.3.
